Results taken from PubChem BioAssay AID1460 (National Center for Advancing Translational Sciences (NCATS), 2008).
Out of some 270,000 compounds screened, about 5,800 (2.1%) were called active. Inconclusive means that the source gave no clear call. Such entries were picked first, then a sample of the others. Calls follow the shape of the dose curve; as a rule, active = well fitted inhibition curve with a large enough effect; inconclusive = small, poorly fitted or top-dose-only effect; inactive = flat fitted curve, though single readings scatter. Potencies beside an inconclusive call are fits to weak or partial responses and may not hold up.

These compounds were tested against Microtubule-associated protein tau (Homo sapiens) (UniProt P10636) (assay: qHTS for Inhibitors of Tau Fibril Formation, Thioflavin T Binding). Conditions: recombinant tau K18 P301L (four-repeat tau fragment), heparin-induced fibrillization, ThT fluorescence; series mostly up to 57.4 µM; activity, negative = inhibition: at the top concentration.
UniProt P10636, sequence (P10636 whole entry, looked up, the tested form may be a part): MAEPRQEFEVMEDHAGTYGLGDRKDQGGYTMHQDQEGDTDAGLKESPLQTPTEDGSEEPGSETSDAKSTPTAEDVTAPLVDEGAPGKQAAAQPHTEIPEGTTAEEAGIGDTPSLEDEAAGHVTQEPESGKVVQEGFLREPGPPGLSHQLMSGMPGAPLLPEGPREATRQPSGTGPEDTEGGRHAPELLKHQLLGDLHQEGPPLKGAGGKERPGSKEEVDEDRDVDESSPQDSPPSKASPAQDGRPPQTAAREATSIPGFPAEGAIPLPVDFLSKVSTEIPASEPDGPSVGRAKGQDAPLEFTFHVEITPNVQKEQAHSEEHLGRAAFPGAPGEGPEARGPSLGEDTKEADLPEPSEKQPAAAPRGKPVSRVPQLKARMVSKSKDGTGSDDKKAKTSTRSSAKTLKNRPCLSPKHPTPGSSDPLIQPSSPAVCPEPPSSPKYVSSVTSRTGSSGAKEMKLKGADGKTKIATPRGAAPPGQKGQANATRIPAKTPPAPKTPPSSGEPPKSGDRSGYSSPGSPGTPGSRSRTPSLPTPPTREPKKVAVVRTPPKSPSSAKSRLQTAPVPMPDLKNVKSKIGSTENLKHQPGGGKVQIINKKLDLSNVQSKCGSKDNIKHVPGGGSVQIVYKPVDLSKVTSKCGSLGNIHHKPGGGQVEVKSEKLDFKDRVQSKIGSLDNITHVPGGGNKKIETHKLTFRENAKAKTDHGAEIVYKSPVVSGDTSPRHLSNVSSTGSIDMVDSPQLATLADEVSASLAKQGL
Excerpt: NIH Molecular Libraries Probe Production Network [MLPCN]
NIH Chemical Genomics Center [NCGC]
Assay Provider: Carlo Ballatore, University of Pennsylvania
The microtubule-associated protein tau is an abundant protein in the axons of neurons that stabilizes microtubules. With its ability to modulate microtubule dynamics, tau contributes directly or indirectly, to key structural and regulatory cellular functions. Particularly important is the influence tau exerts on axonal transport, which allows signaling molecules, trophic factors and other essential cellular constituents to travel along the axons. Under pathological conditions, tau becomes sequestered into insoluble aggregates called neurofibrillary tangles. This phenomenon is believed to have pathological consequences by promoting axonal transport deficits that ultimately lead to synaptic dysfunction and neuronal loss. To identify inhibitors of tau aggregation, a heparin-induced tau fibril formation assay was used that employed a recombinantly expressed fragment of tau, K18 (Q242-E372), bearing a P301L mutation (Gustke et al. 1994; Hong et al. 1998). This assay monitors tau fibrillization by Thioflavin T (ThT) fluorescence.
Gustke, N., B. Trinczek, et al. (1994). "Domains of tau protein and interactions with microtubules." Biochemistry 33(32): 9511-22.
Hong, M., V. Zhukareva, et al. (1998).
Li, W. and V. M. Lee (2006).
von Bergen, M., S. Barghorn, et al. (2001). "Mutations of tau protein in frontotemporal dementia promote aggregation of paired helical filaments by enhancing local beta-structure." J Biol Chem 276(51): 48165-74.
NCGC Assay Protocol Summary:
For screening, 2 uL/well human K18 P301L (15 uM unlabeled and 0.24 uM Alexa 594-labeled tau, final concentrations) in reagent buffer (100 mM sodium acetate pH 7) was dispensed into black solid 1536-well plates (Grenier) using a solenoid-based dispenser. Following transfer of 23 nL compound or DMSO vehicle by a pin tool, 2 uL/well heparin (20 uM final concentration) in reagent buffer was added and the plate centrifuged 15 s at 1000 RPM. Plates were incubated 6 hr at 37 C and then 1 uL/well ThT (30 uM final concentration) was added. After a 1 hr ambient incubation, the plates were read by an Envision (Perkin Elmer) to monitor ThT fluorescence (450/8 nm excitation and 510/23 nm emission).
Keywords: NIH Roadmap, MLPCN, MLI, MLSMR, NCGC, qHTS, tau, tauopathies, Alzheimer's disease, fibril, neurodegeneration, aggregation
% is scaled to controls: 0 for no effect and ±100 for the full control effect; potency is read from the fitted curve at half-maximal effect; tags tell the direction and shape of the fitted curve.
Also: nearly all actives have a fitted effect of over 55% in size.

Structure (SMILES)	Potency	activity, negative = inhibition
NC(=O)c1c(N)sc2c1CCC2	inconclusive: 31.6 µM [inhibitor, partial curve]	
O=C(NCc1ccncc1)Nc1ccc2c(c1)OCO2		inactive: -6.86%
CSCC[C@H](NC(=O)Nc1ccc(OC(F)(F)F)cc1)C(=O)O		inactive: -3.95%
Cc1ccc2c(c1)cc1c(=O)n(CC(=O)NCc3ccco3)nc(C)n12		inactive: 0.912%
CSc1ccccc1-c1nnc(-c2ccc(C)cc2)o1	inconclusive: 17.8 µM [inhibitor, single point]	
CC(=O)c1ccc(NC(=O)Cn2c(-n3nc(C)cc3C)nc(C)cc2=O)cc1	inconclusive: 14.1 µM [inhibitor, partial curve, poor fit]	
COc1cc(OC)cc(-c2nnc(SCC(=O)N3CCC(C)CC3)o2)c1		inactive: -15.5%
COc1ccc(-n2nnnc2SCC(=O)NC(=O)Nc2ccc3c(c2)OCCO3)cc1	inconclusive: 15.8 µM [inhibitor, partial curve]	
CC(C)(C)c1ccc(OCC(=O)N(Cc2ccco2)Cc2ccccc2F)cc1	inconclusive: 5.62 µM [inhibitor, partial curve]	
Cc1ccccc1N=C1NC(=O)/C(=C/c2cccn2C)S1	inconclusive: 14.1 µM [inhibitor, partial curve]	
COc1ccc(/C=C/c2nc3ccccc3n2Cc2ccc(OC)c(OC)c2)cc1	inconclusive: 28.2 µM [inhibitor, single point]	
Oc1ccc(N=Cc2c(O)ccc3ccccc23)cc1	active: 12.6 µM	
CCCC(=O)Oc1c(Sc2ccc(Cl)cc2)c(C)nn1-c1ccccc1	inconclusive: 31.6 µM [inhibitor, partial curve]	
CN1/C(=C\C=C2/SC(=S)N(CC(=O)O)C2=O)C(C)(C)c2ccccc21	active: 3.98 µM	
COCCN=c1scc(-c2cccs2)n1/N=C/c1ccc(O)c(O)c1O		inactive: 5.46%
Cc1ccc(NC(=O)C(Cc2ccccc2)NS(=O)(=O)c2ccc3c(c2)c(=O)n(C)c(=O)n3C)cc1 (configuration not stated)		inactive: -1.51%
CCN(C(=O)c1cc(S(=O)(=O)N2CCOCC2)cn1C)c1ccc(OC)cc1		inactive: 9.77%
O=C(N=Nc1ccc(NOC(=O)c2ccccc2Br)cc1)c1ccccc1O	active: 10 µM	
O=C1Nc2ccc(F)cc2C12Nc1ccccc1-c1nnc(SCc3ccccc3Cl)nc1O2 (configuration not stated)	active: 28.2 µM	
CN(C)C(=O)c1ccc2c(c1)N(CC(=O)NCc1ccc(F)cc1)C(=O)C1CCCCN21 (configuration not stated)		inactive: -1.52%
O=C(Nc1ccc(O)c2c(=O)cc(-c3ccccc3Cl)oc12)c1ccc(Cl)c(Cl)c1		inactive: -9.55%
Cc1ccc(CSc2nc3c(c(N(C)C)n2)CCCC3)cc1		inactive: -16.5%
